Experimental data reported in ChEMBL document CHEMBL1201862, “PubChem BioAssay data set” (2004).
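How tested: cells in 96-well plates exposed to compound for 48 hours at five concentrations. GI50 = concentration required for 50% inhibition of growth.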 The source made the active and inactive calls. Cut-off read from the data, not from the text of the source: active = GI50 up to about 1.1 µM and inactive = higher. Numbered stars: 1 amine (or outer) side, 2 acyl side, 3 side chain; on linkers, the order of the positions; unused ones are H or OH. Square brackets hold non-standard residues; d marks the D form. Peptide text beside a SMILES is read from it. * marks the point of attachment. ξ: configuration not given here. X49 = CC(C)C[C@H](N[*:1])C1=N[C@H](C(=O)[*:2])CS1; Ile(3ξ) = CCC(C)[C@H](N)C(=O)O; Allyl(1,1-Me2) = C=CC(C)(C)*

Each compound was assayed on NCI-H322M (assay: NCI-60 cell line screen, 48 h).

Compound | GI50
Nc1nc(=O)n(C2CC(O)C(CO)O2)c2nc(-c3ccc(-c4ccccc4)cc3)cnc12 (centres undefined) | inactive: 62.8 µM
Nc1c(-c2nc3ccccc3o2)sc(=S)n1-c1ccc(Cl)cc1 | inactive: 26.3 µM
NCCN1C(=O)C2C3c4ccccc4C(c4ccccc43)C2C1=O (centres undefined) | inactive: > 100 µM
N#Cc1c(N2CCCC2)nsc1NCc1ccccc1 | inactive: > 100 µM
Cc1cccc(/N=N/c2c(C)nn(C(=O)CC(=O)Nc3ccc(Cl)cc3)c2C)c1 | inactive: 67.8 µM
CN1c2ccc(Cl)cc2C(=O)NC1c1ccc([N+](=O)[O-])s1 (centres undefined) | inactive: 24.5 µM
CCOC(=O)Nc1ccc(S(=O)(=O)Nc2ccc(Br)cc2)cc1 | inactive: 71.3 µM
CCN(CC)CCNc1ccc2ncn3c4cc(OC)c(OC)c(O)c4c(=O)c1c23 | inactive: 4.06 µM
CC(Oc1ccccc1)C(=O)NNC(=O)OC(C)(C)C (centres undefined) | inactive: > 100 µM
CCN(CC)CCO/N=C1/C=C2CCC3C(CC[C@@]4(C)C3CC[C@]4(C)O)[C@@]2(C)CC1 (some centres undefined) | inactive: 6.61 µM
O=C1c2ccccc2C(=O)N1CCn1nc(-c2ccccc2)cc(-c2ccccc2)c1=O | inactive: > 100 µM
Cn1c(=O)c2c(ncn2CCSS(=O)(=O)O)n(C)c1=O | inactive: > 100 µM
C=CC(C)(C)OC[C@@H]1NC(=O)CNC(=O)[C@@H]2CCCN2C(=O)[C@H](C(C)CC)NC(=O)[C@@H]2CSC(=N2)[C@H](CC(C)C)NC1=O (some centres undefined) (cyclo(GS(Allyl(1,1-Me2))[X49][Ile(3ξ)]P)) | inactive: > 100 µM
Cc1cc(Cl)ccc1NC(=O)/C(Cc1nc2ccc(C(=O)c3ccccc3)cc2nc1O)=N/NC(=O)c1ccncc1 | inactive: > 100 µM
CC(C)(C)c1ccc(OCC(=O)O)c(Cl)c1 | inactive: > 100 µM
CCCOc1cc2c(cc1O)CC[C@@H]1[C@@H]2CC[C@]2(C)[C@@H](O)CC[C@@H]12 | inactive: 5.69 µM
CSc1nc2c(nc(C)c(=O)n2C2OCC(OC(C)=O)C(OC(C)=O)C2OC(C)=O)c(=O)[nH]1 (centres undefined) | inactive: > 100 µM

Compound | GI50
CC(=O)c1ccc(NC(=O)C(=O)C(C(=O)/C=C/c2ccccc2)C2OC(=O)c3ccccc32)cc1 (centres undefined) | inactive: > 100 µM
CCCCCCCCCCCCOP(=O)(O)OCC(N)C(=O)O (centres undefined) | inactive: 33.9 µM
Cc1cc(C)c2c(c1)CC1(Cc3cc(C)c(C)cc3C1=O)C2=O (centres undefined) | inactive: > 100 µM
N/C(=N\O)NCCN1CCCCCCC1 | inactive: > 100 µM
C=C1C(=O)O[C@H]2C3C(=C(C)CC[C@@H]12)C(=O)[C@@H]1OC31C (some centres undefined) | inactive: 13 µM
CC1CCC2N(C1)CC1C3(O)CC45OC6(O)C(O)CCC4(C)C6CCC5C3(O)CC(O)C1(O)C2(C)O (centres undefined) | inactive: > 100 µM
CC1=NN=C(N)N/C1=C\C(Sc1ccc(Cl)cc1)c1ccc([N+](=O)[O-])cc1 (centres undefined) | inactive: > 100 µM
CC(C)C1N2CCCCC2[C@@H]2c3[nH]c4ccccc4c3CCN12 (some centres undefined) | inactive: > 100 µM
O=C(NC12CC3CC(CC(C3)C1)C2)C(=O)c1c[nH]c2ccc([N+](=O)[O-])cc12 | inactive: 56.2 µM
CC1=C(C(=O)c2ccccc2)C23C(=O)N(c4ccccc4)C(=O)C2=C(O)C=CC3(O)N1 (centres undefined) | inactive: > 100 µM
COc1ccc(-c2cc(-c3ccccc3)nc(N)c2-c2ccc3ccccc3c2)cc1 | inactive: 1.93 µM
COc1cccc(C(=O)C(O)c2cccc(OC)c2OC)c1OC (centres undefined) | inactive: > 100 µM
O=C(CCC(=O)Nc1ccc(Cl)c(Cl)c1)CC(=O)c1ccc(F)cc1 | inactive: > 100 µM
COc1ccc(OC)c(Cc2cnc3nc(N)nc(N)c3c2C)c1 [PIRITREXIM ISETHIONATE] | active: 0.168 µM
O=C(NCC1Nc2ccncc2S(=O)(=O)N1)c1ccc(Br)cc1 (centres undefined) | inactive: > 100 µM
COC(=O)c1c(O)ccc2c1c1c(n2Cc2cccc(C)c2)C(=O)c2ccccc2C1=O | inactive: 7.89 µM
COC(=O)[C@]1(C)CCC[C@@]2(C)[C@@H]3C[C@@H]4[C@H]5C[C@@]3(CC[C@@H]21)C[C@@]45C | inactive: 21.3 µM
